Data on 56 molecules can be found in article PMC4336329 (PLoS ONE, 2015).

Out of some 310,000 compounds screened, about 2,200 (0.71%) showed an effect of 50% or more. The effect is printed as a negative number. Some of the results follow.

The target in the assay is human ether-à-go-go-related gene (hERG) potassium channel (human, UniProt Q12809). Put plainly: primary screen, population patch clamp on CHO cells stably expressing hERG.
Sequence of human ether-à-go-go-related gene (hERG) potassium channel (Q12809 whole entry, looked up): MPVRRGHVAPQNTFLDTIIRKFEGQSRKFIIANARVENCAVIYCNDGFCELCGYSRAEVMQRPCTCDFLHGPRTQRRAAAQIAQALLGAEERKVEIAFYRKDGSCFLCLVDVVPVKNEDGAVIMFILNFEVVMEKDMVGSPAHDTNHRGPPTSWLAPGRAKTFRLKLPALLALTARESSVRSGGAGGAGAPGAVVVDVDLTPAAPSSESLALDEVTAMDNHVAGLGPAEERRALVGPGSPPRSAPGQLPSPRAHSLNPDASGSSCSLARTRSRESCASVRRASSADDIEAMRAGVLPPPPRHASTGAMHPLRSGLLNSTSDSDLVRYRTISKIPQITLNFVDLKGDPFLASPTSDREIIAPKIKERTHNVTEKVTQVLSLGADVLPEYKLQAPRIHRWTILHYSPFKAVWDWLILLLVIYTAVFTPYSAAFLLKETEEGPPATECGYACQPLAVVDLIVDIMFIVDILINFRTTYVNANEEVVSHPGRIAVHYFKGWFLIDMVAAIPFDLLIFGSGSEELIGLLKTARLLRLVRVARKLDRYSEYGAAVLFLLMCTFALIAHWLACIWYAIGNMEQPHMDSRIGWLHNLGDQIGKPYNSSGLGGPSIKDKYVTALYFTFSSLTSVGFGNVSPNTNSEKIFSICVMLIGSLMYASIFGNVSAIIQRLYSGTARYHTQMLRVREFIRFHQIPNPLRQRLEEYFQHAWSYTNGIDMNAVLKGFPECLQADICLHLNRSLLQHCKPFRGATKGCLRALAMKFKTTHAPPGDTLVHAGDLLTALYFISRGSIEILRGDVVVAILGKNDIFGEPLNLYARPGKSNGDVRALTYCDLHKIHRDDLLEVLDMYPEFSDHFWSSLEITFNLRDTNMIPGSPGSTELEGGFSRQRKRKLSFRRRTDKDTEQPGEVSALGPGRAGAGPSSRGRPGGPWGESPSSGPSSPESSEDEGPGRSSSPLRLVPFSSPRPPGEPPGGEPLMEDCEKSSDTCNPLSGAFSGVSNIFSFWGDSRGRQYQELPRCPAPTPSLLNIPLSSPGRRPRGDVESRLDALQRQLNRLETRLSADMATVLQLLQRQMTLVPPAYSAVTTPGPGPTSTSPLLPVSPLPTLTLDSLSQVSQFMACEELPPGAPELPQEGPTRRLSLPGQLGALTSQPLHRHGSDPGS
As to `C=CCn1c(-c2ccccc2)cc(SC)c(C#N)c1=O`, the “hERG current change (%, negative = inhibition) at 1uM” value is given as 10.4%. Next, `CC(OC(=O)c1ccc2ncsc2c1)C(=O)Nc1ncc(Cl)cc1Cl` (centres unmarked): 8.58%. The result for `CC(=O)N1CCCc2cc(S(=O)(=O)N(C)CCC#N)ccc21` reads 7.46%; that for `CCCOC(=O)c1ccc(NC(=O)CSC2=Nc3ccccc3C3CC=NN23)cc1` (centres unmarked), 21.4%.

For `COc1cc2ccccc2cc1C(=O)N(CCN(C)C)c1nc2ccc(C)cc2s1.Cl`, the “hERG current change (%, negative = inhibition) at 1uM” value is 17%.

In the case of `CCCn1nc(NC(=O)c2cccs2)c2cc3cc(C)ccc3nc21`, the “hERG current change (%, negative = inhibition) at 1uM” value is 11.5%. On to `CCC(C)(C)NC(=O)C(c1ccc(OC)cc1)N(C(=O)CCC(=O)Nc1cc(C)on1)c1ccccc1OC` (centres unmarked), for which the “hERG current change (%, negative = inhibition) at 1uM” value stood at 2.39%. Next, `CC(=O)Nc1ccc(NC(=O)COC(=O)c2ccccn2)cc1`: 20.6%; `COc1ccc(S(=O)(=O)N2CCC(C(=O)N3CCCC3)CC2)cc1C`: 15.3%.

For the molecule `O=C(NC1CCN(C(=O)c2cccc([N+](=O)[O-])c2)CC1)c1ccccc1`, the “hERG current change (%, negative = inhibition) at 1uM” value turned out to be 10%. In the case of `CC(=O)Nc1ccc(CN2CCC(Oc3ccc(C(=O)N4CCCC4)cc3)CC2)cc1`, the “hERG current change (%, negative = inhibition) at 1uM” value was -6.27%. In the case of `COc1ccc(-c2coc3cc(O)c(OC)cc3c2=O)cc1`, the “hERG current change (%, negative = inhibition) at 1uM” value turned out to be 9.88%. On to `Cn1c(SC2CCCCC2=O)nnc1-c1ccncc1` (centres unmarked), for which the “hERG current change (%, negative = inhibition) at 1uM” value is reported as -3.05%.

Consider `CCC(=O)c1c(CC)c2n3c1CC[C@H]3CCC2`, for which the “hERG current change (%, negative = inhibition) at 1uM” value was 2.14%. Next, `c1ccc(Cn2c(-c3ccco3)nc3nc4ccccc4nc32)cc1`: 8.8%. Next, `O=c1[nH]c(CSc2ncnc3sccc23)nc2cc(C(F)(F)F)ccc12`: 12.3%. As for `CC(O)(C#CCN1CCCCCC1)c1ccccc1` (centres unmarked), the “hERG current change (%, negative = inhibition) at 1uM” value came to 6.84%. The result for `CC(C)(C)c1nnc(NS(=O)(=O)c2ccc([N+](=O)[O-])cc2)s1` reads 26.2%. Next, `O=C(Nc1nc(-c2ccccc2)cs1)c1cccc([N+](=O)[O-])c1`: 4.94%; `CCSc1nnc(-c2cc3c(s2)-c2ccccc2CC3)o1`: 6.18%. The result for `COc1ccc(CC2(CO)CCN(S(=O)(=O)c3cccc4cccnc34)CC2)cc1` reads 8.05%. For the molecule `CSC1=NSC2=NC(=O)/C(=C/c3coc4ccccc4c3=O)C(=N)N12`, the “hERG current change (%, negative = inhibition) at 1uM” value worked out at 3.58%.

In the case of `Cc1[nH]c2ccccc2c1C(=O)COC(=O)C(C)C`, the “hERG current change (%, negative = inhibition) at 1uM” value was -3.52%. For the molecule `COCCCNC(=O)[C@H](CSCc1ccccc1)N1Cc2ccccc2C1=O`, the “hERG current change (%, negative = inhibition) at 1uM” value is reported as 12.1%. Next, `CCN1CCCC1CN(Cc1cc2ccc(C)cc2[nH]c1=O)C(=S)Nc1ccc(F)cc1` (centres unmarked): -70.6%; `Cc1ccc(C(NC(=O)N2CC(C)OC(C)C2)C(Cl)Cl)cc1F` (centres unmarked): 11.9%; `CCOC(=O)c1c(NC(=O)C(=O)N/N=C/c2ccc(OCC)cc2)sc2c1CCCCC2`: 8.66%. Next, `CCOC(=O)c1c(NC(=O)c2c(Br)cnn2CC)sc(C)c1C`: 10.8%; `O=C(Nc1nc(-c2ccccn2)cs1)c1ccc(Br)s1`: 13.4%; `Cc1ccccc1NC(=O)NCCN1C(=O)C2C3C=CC(C3)C2C1=O` (centres unmarked): 13.8%. Next, `CCOc1ccc(S(=O)(=O)Nc2ccc(C(=O)NCC(c3ccccc3)N(C)C)cc2)cc1` (centres unmarked): -11.6%. For `Cc1c(C(=O)N2CCCCC2)c(S(=O)(=O)NCc2ccc(N(C)C)cc2)c(C)n1C`, the “hERG current change (%, negative = inhibition) at 1uM” value is recorded as 18.4%. Next, `CCOC(=O)C1(Cc2ccccc2)CCCN(C(=O)C=C(C)C)C1` (centres unmarked): 18.5%; `COc1ccc([C@@H]2[C@@H]3C(=O)N(C(C)(C)C)C(=O)[C@@H]3[C@]3(C)C(=O)N(c4ccccc4)C(=O)N23)cc1`: 7.39%. Turning to `O=[N+]([O-])c1cccc(C(=Nc2ccc(Cl)cc2)NO)c1`, the “hERG current change (%, negative = inhibition) at 1uM” value is given as 13.1%. The result for `CC(C)C[C@H](NC(=O)NCc1ccc(F)cc1)C(=O)O` reads 5.71%. Take `Cc1ccnc(NC(=O)CNC(=O)c2ccc(C)s2)c1`: the “hERG current change (%, negative = inhibition) at 1uM” value was found to be 2.55%. Turning to `COc1cc(C2C(C(=O)c3ccc(C)o3)=C(O)C(=O)N2CCCn2ccnc2)cc(OC)c1OC` (centres unmarked), the “hERG current change (%, negative = inhibition) at 1uM” value is -10.8%.

As for `CC(=O)OCC1OC(n2cc(F)c(=O)[nH]c2=O)C(OC(C)=O)C1OC(C)=O` (centres unmarked), the “hERG current change (%, negative = inhibition) at 1uM” value is 8.4%. The result for `Cc1noc(NC(=O)c2cccc(C(F)(F)F)c2)c1Cl` reads 7.08%. The result for `Cc1nnsc1C(=O)Nc1ccc(S(=O)(=O)N2CCC(C)CC2)cc1` reads 16.9%; that for `c1ccc(CC(Nc2ccccn2)c2ccccc2)cc1` (centres unmarked), -10.6%; that for `COc1ccc(OC)c(C(=O)NC(CC(N)=O)c2ccc(N3CCC(N4CCCC4)CC3)c([N+](=O)[O-])c2)c1` (centres unmarked), 12.9%. Next, `CCOCCn1c(CN2CCN(C)CC2)nc2c1c(=O)n(C)c(=O)n2C`: 17.2%; `CCN(CC)CCN(C(=O)c1c(F)cccc1F)c1nc2cc(C)cc(C)c2s1.Cl`: 2.79%; `N#Cc1c(-c2ccccc2)cc(-c2ccccc2)[nH]c1=O`: 12.9%. Consider `O=C(CSc1nc2ccccc2c(=O)n1CCC(=O)N1CCN(c2ccccc2)CC1)NCC1CCCO1` (centres unmarked), for which the “hERG current change (%, negative = inhibition) at 1uM” value worked out at 3.09%. The result for `Cc1ccc(NS(=O)(=O)c2coc(C(N)=O)c2)cc1F` reads 12.4%. Turning to `O=C(c1ccc(S(=O)(=O)N2CCOCC2)cc1)N1CCOCC1`, the “hERG current change (%, negative = inhibition) at 1uM” value is reported as 9.57%. Turning to `COC(=O)c1ccc(CSc2nnc3nc(C)cc(C)n23)cc1`, the “hERG current change (%, negative = inhibition) at 1uM” value was 11.9%.

As to `Cc1nnsc1NC(=O)OCc1ccccc1Cl`, the “hERG current change (%, negative = inhibition) at 1uM” value turned out to be 13.4%. Take `COc1ccccc1-c1nc(C#N)c(N2CCc3ccccc3C2)o1`: the “hERG current change (%, negative = inhibition) at 1uM” value was 8.12%. The result for `Cc1cc(C)nc(N2C(=O)CC(C(C)c3ccccc3)C2=O)n1` (centres unmarked) reads 12.5%. Next, `O=C(CCn1nnnc1CN1CCOCC1)N1CCC(c2ccccc2Cl)C1` (centres unmarked): 4.81%; `CC(C)C(=O)NC(=S)Nc1nnn(C)n1`: 16.2%; `CCOc1ccccc1CN1CCNC(=O)C1CC(=O)N(C)CCc1ccccn1` (centres unmarked): 14.8%.
